Binding data for three substances are collected here from article PMC10850161.

Protein sequences, listed by entry. Tags and fused reporters are not part of them.
UniProt Q14814: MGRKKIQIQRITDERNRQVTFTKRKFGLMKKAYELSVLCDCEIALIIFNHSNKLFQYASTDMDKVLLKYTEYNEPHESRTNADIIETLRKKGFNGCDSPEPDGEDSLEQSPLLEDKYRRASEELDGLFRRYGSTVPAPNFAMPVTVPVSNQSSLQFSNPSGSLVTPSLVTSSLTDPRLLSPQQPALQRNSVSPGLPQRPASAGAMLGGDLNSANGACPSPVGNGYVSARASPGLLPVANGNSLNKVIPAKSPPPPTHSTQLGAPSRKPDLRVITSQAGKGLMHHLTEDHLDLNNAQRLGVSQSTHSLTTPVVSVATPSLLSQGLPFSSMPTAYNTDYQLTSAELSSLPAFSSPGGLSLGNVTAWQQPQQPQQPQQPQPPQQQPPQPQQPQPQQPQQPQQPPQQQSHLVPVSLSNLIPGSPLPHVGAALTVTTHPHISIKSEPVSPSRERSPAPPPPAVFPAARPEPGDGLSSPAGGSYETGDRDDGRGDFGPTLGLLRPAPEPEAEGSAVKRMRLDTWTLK
UniProt O60260: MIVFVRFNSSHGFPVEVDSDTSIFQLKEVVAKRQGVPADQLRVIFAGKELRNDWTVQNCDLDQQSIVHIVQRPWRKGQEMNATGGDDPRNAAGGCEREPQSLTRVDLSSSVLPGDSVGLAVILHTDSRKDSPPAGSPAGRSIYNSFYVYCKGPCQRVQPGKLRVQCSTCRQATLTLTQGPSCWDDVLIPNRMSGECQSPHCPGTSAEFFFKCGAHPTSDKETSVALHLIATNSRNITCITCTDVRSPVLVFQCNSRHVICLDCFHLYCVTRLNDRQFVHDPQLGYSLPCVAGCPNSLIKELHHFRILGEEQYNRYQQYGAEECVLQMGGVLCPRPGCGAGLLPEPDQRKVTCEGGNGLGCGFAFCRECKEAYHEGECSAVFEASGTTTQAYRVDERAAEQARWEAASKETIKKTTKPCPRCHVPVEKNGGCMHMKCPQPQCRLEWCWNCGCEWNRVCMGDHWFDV
UniProt Q9BQQ3: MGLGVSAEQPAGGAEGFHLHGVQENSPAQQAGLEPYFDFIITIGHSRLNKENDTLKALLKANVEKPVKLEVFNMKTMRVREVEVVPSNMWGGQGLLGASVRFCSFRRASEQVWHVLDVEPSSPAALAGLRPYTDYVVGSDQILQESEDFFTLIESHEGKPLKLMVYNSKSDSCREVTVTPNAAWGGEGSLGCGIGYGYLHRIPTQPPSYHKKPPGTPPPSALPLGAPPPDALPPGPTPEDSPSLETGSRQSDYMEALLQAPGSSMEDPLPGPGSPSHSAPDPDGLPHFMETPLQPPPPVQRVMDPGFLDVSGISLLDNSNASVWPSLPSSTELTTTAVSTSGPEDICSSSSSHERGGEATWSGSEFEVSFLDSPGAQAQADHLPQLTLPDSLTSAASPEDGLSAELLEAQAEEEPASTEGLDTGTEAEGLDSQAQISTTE

In one experiment the target is His-tagged MEF2D (UniProt Q14814). Kind of experiment: pull-down; His-tagged bait (Parkin or MEF2D) coupled to resin, incubated overnight at 4 °C with lysate of MEFs expressing the Flag-tagged protein; resin washed three times, eluted by boiling in Laemmli buffer; immunoblot with anti-Flag, anti-Parkin, anti-His; only the target purified. A general note: Immunoblotting shows a protein as a band on a membrane.

Experiment [1] deals with His-tagged Parkin (affinity-purified recombinant, from bacteria) (UniProt O60260). The experiment is described as above.
Experiment [2] addresses T1, GM130 (human (endogenous in HeLa)) (UniProt Q08379).
T1 sequence: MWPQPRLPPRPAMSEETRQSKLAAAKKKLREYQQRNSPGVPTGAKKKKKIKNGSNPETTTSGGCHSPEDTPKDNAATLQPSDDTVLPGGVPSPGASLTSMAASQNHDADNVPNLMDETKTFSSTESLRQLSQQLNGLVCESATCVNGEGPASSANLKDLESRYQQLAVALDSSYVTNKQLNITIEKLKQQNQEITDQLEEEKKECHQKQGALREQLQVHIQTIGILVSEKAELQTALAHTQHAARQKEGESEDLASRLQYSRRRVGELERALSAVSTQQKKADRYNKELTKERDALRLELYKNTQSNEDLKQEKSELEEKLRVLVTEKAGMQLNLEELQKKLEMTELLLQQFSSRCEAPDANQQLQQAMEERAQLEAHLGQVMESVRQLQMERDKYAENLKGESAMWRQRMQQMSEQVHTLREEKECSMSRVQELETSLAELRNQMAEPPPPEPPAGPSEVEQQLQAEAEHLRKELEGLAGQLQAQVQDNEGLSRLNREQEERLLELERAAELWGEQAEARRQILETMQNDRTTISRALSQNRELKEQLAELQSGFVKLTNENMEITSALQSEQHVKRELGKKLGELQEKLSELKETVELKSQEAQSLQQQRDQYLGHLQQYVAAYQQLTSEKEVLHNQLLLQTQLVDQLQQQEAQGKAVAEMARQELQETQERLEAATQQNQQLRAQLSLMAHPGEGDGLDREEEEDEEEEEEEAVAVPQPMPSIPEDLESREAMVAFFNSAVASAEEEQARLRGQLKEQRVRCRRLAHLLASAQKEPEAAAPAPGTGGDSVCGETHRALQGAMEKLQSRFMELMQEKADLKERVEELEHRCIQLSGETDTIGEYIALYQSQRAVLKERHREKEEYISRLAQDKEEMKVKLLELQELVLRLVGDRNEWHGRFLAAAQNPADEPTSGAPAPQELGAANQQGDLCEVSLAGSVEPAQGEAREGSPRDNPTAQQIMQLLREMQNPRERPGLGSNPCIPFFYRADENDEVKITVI
The experiment in a line: proximity ligation; HeLa cells, fixed with 4% paraformaldehyde; primary antibodies against the two proteins overnight at 4 °C; PLA kit (Sigma-Aldrich DUO92014); PLA dots per cell counted.

Experiment [3] has as its target YFP-Parkin, expressed in HeLa cells (UniProt O60260). The experiment is described as above.
Experiment [4] addresses mCherry-Parkin, expressed in HeLa cells (UniProt O60260). The description is as above.

No constants are given. Whether binding was seen depends on the method and setting. Binding seen in cells or lysates may run through a third protein. Some entries that bind do so weakly or less than the wild type.

As to “Flag-tagged Calcineurin (CaN-Flag), expressed in MEFs (from UniProt P16298 1-524) (enzyme)”, the binding result was “no binding” with His-tagged MEF2D and “binds” in experiment [1].
As for GRASP65 (from UniProt Q9BQQ3 1-440), the binding entry in experiment [2] is “binds”; in experiment [3] it was “no binding”.
With “PPP3CB-Flag (CaN-FLAG), expressed in HeLa cells (from UniProt P16298 1-524) (enzyme)”, the binding result in experiment [4] is “binds”.
